{"source": "the supplement of paper PMC8728848", "binders": {"B1": {"name": "DC-ASGPR S+GEE (Homo sapiens) (protein)", "chain": "MTRTYENFQYLENKVKVQGFKNGPLPLQSLLQRLRSGPCHLLLSLGLGLLLLVIICVVGFQNSKFQRDLVTLRTDFSNFTSNTVAEIQALTSQGSSLEETIASLKAEVEGFKQERQAVHSEMLLRVQQLVQDLKKLTCQVATINNNGEEASTEGTCCPVNWVEHQDSCYWFSHSGMSWAEAEKYCQLKNAHLVVINSREEQNFVQKYLGSAYTWMGLSDPEGAWKWVDGTDYATGFQNWKPGQPDDWQGHGLGGGEDCAHFHPDGRWNDDVCQRPYHWVCEAGLGQTSQESH"}}, "assay_in_all_cases": "glycan array binding signal (z-score within array); higher = stronger binding", "conditions_in_all_cases": "glycan notation: IUPAC condensed, linker removed", "key": {"[1]": {"molecular_target": "Neu5Gc(a2-8)Neu5Gc(a2-3)Gal(b1-4)GlcNAc(b1-3)Gal(b1-4)GlcNAc", "in_short": "(§1)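 Glycan array binding is given as a within-array Z-score, which can be read as non-binding when negative. The arrays, 3228 of them, came from the Consortium for Functional Glycomics database and were retained only where the protein sequence was available. Z-scores were averaged across arrays of the same protein sequence at different concentrations or buffers and across linkers.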"}, "[2]": {"molecular_target": "Neu5Gc(a2-8)Neu5Gc(a2-6)Gal(b1-4)GlcNAc", "in_short": "as §1"}, "[3]": {"molecular_target": "Neu5Gc(b2-6)Gal(b1-4)GlcNAc", "in_short": "as §1"}}, "note": "The list shows a part of the results."}
{"binder": "B1", "values": [{"measurement": "glycan array binding signal (z-score)", "setting": "[1]", "value": -0.242}, {"measurement": "glycan array binding signal (z-score)", "setting": "[2]", "value": -0.404}, {"measurement": "glycan array binding signal (z-score)", "setting": "[3]", "value": -0.355}]}
